We go through 73 sequences from the BET-seq Pho4 binding data (Le et al. 2018).

This is one part of the list. Values were computed here from the reads of four pooled replicates and scatter widely.

For this test, the target named is T1, Pho4 (S. cerevisiae) (UniProt P07270).
T1 sequence: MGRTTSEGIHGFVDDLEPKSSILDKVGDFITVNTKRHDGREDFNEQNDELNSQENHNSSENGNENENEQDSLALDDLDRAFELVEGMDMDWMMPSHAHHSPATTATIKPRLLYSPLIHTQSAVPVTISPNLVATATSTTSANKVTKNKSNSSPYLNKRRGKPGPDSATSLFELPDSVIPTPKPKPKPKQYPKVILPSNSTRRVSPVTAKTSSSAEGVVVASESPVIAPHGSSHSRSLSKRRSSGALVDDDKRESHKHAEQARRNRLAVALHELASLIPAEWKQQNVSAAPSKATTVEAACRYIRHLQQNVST
Put plainly: relative binding free energy (BET-seq); higher = weaker binding. The note with it: reference: library average.
For GCGGACACGTGGTGTT, the “relative binding free energy” value came to 0.03 kcal/mol. The figure for TGAAGCACGTGAGGTA is 0.29 kcal/mol; for GGGTGCACGTGTGGGG it is 0.12 kcal/mol. The figure for ACGGGCACGTGGCGGA is -0.21 kcal/mol; for ACGGGCACGTGGTAAG it is -0.09 kcal/mol; for TCGCGCACGTGGGTGT it is -0.21 kcal/mol. For GATGGCACGTGAGAGA, the “relative binding free energy” value stood at 0.16 kcal/mol. In the case of CTTAGCACGTGAGTGT, the “relative binding free energy” value was 0.21 kcal/mol. The figure for TGATACACGTGGATTG is 0.04 kcal/mol; for GGTGGCACGTGGAAGT it is 0.11 kcal/mol. Turning to TTAGTCACGTGGTTCA, the “relative binding free energy” value was determined as 0.08 kcal/mol.

As for GCGGTCACGTGGTGAA, the “relative binding free energy” value was determined as 0.21 kcal/mol. The figure for TCTGACACGTGTGGAT is 0.2 kcal/mol. The figure for ACGTACACGTGGGTGG is -0.05 kcal/mol; for GTTAACACGTGATCGT it is 0.14 kcal/mol. Regarding CTATACACGTGGTGGG, the “relative binding free energy” value was -0.03 kcal/mol. The figure for GCATTCACGTGTTTGT is 0.33 kcal/mol. GGGTGCACGTGGAAAA: the “relative binding free energy” value is 0.16 kcal/mol. With GAGGTCACGTGCTAGG, the “relative binding free energy” value came to 0.07 kcal/mol.

Turning to GTCGGCACGTGATGGA, the “relative binding free energy” value turned out to be 0.1 kcal/mol. Take AGATACACGTGGTGAG: the “relative binding free energy” value was -0.07 kcal/mol. In the case of ATTCACACGTGTGGGG, the “relative binding free energy” value amounted to 0.1 kcal/mol. With GCGAGCACGTGAGTTG, the “relative binding free energy” value worked out at 0.32 kcal/mol. The figure for TGGTGCACGTGGAGGT is -0.02 kcal/mol.

Take GGTTGCACGTGCGCAG: the “relative binding free energy” value was determined as 0.02 kcal/mol.

In the case of AAGATCACGTGGATTT, the “relative binding free energy” value came to 0.23 kcal/mol. For the sequence GTTGGCACGTGCGGAG, the “relative binding free energy” value was -0.01 kcal/mol. The figure for GGGTGCACGTGTACAG is 0.07 kcal/mol; for TCGAGCACGTGGAAAG it is 0.2 kcal/mol. The figure for GCCGTCACGTGTGGTG is 0.18 kcal/mol; for GTTATCACGTGCAGGA it is 0.29 kcal/mol. The figure for ATAGGCACGTGGCGGT is -0.2 kcal/mol; for GAATCCACGTGTGGGT it is 0.16 kcal/mol. Turning to TAGATCACGTGGAATG, the “relative binding free energy” value worked out at 0.19 kcal/mol. Regarding GTGTACACGTGGTCGA, the “relative binding free energy” value is 0.03 kcal/mol. The figure for GTGGACACGTGATTTA is 0.15 kcal/mol. As to GTTGACACGTGGAGAT, the “relative binding free energy” value was found to be 0.2 kcal/mol.

Turning to TGTGGCACGTGTCGGC, the “relative binding free energy” value was determined as 0.02 kcal/mol.

Consider CTGTTCACGTGTATTA, for which the “relative binding free energy” value was 0.28 kcal/mol. The figure for GGGTGCACGTGGCGGC is -0.1 kcal/mol; for ATGATCACGTGAATTG it is 0.2 kcal/mol. The figure for GGGTTCACGTGATAAA is 0.35 kcal/mol; for ATTGTCACGTGCTAAG it is 0.1 kcal/mol; for GTTCGCACGTGGGGTT it is -0.13 kcal/mol. On to TTATTCACGTGATTGC, for which the “relative binding free energy” value was found to be 0.22 kcal/mol. The figure for GGTGTCACGTGTGATA is 0.28 kcal/mol. The figure for TACTACACGTGGGGTG is -0.09 kcal/mol. With TAGGTCACGTGACTGG, the “relative binding free energy” value worked out at 0.33 kcal/mol. For the sequence GGGTACACGTGGATAT, the “relative binding free energy” value came out at 0.22 kcal/mol.

For TCTGACACGTGAGTGT, the “relative binding free energy” value was determined as 0.17 kcal/mol. With AGTATCACGTGCAGGG, the “relative binding free energy” value was 0.25 kcal/mol.

On to CGAGCCACGTGGGGCG, for which the “relative binding free energy” value is -0.09 kcal/mol.

Regarding TAGGGCACGTGTTCTT, the “relative binding free energy” value was -0.16 kcal/mol. The figure for AGGAGCACGTGTGGAC is 0.13 kcal/mol; for TCGCGCACGTGTAGGG it is -0.12 kcal/mol.

Turning to TATTTCACGTGGGGAA, the “relative binding free energy” value worked out at 0.11 kcal/mol.

In the case of TTCTTCACGTGAGGGT, the “relative binding free energy” value amounted to 0.21 kcal/mol. Take CTGCTCACGTGGGGTA: the “relative binding free energy” value came to 0.02 kcal/mol. Take CGTGGCACGTGCAGGT: the “relative binding free energy” value was -0.16 kcal/mol. The figure for CTACTCACGTGGTGTG is 0.15 kcal/mol; for GAGTTCACGTGGGTAT it is 0.37 kcal/mol. With TAATGCACGTGGTATT, the “relative binding free energy” value was -0.16 kcal/mol. Take TGTTTCACGTGCCAGT: the “relative binding free energy” value is 0.33 kcal/mol. The figure for GTGCACACGTGGTCGT is 0.04 kcal/mol. The figure for GACTTCACGTGAGTTG is 0.53 kcal/mol. The figure for AGTCACACGTGGGGGT is 0.01 kcal/mol; for TAATGCACGTGCTTGT it is -0.28 kcal/mol; for ATTTGCACGTGTGCGA it is 0.1 kcal/mol. For GTTTTCACGTGAAGAT, the “relative binding free energy” value was determined as 0.33 kcal/mol.

For the sequence GTTATCACGTGGGATT, the “relative binding free energy” value was 0.15 kcal/mol. The figure for GAACTCACGTGGTGGT is 0.17 kcal/mol; for CAGGTCACGTGCAGGG it is 0.01 kcal/mol; for GTACGCACGTGTTGTA it is -0.03 kcal/mol.
